The list shows a part of the results.

We go through 40 molecules from the antibiotic and cytotoxicity screens of Wong et al. (2023).

For this experiment, the system named is S. aureus RN4220. Nature of the experiment: growth inhibition call (relative growth <= 0.2). Particulars: 50 µM.
In the case of `Cc1ccc(S(=O)(=O)N2C[C@H](O)COC[C@@H]3O[C@@H](CC(=O)NCCN4CCCCC4)CC[C@H]32)cc1`, the growth inhibition call was “inactive”.

Turning to `Cc1ccc(-c2ccc3c(c2)O[C@H](CN(C)C(=O)CN(C)C)[C@@H](C)CN([C@H](C)CO)S3(=O)=O)cc1`, the growth inhibition call was “inactive”.

Take `CO[C@@H](CN(C)S(=O)(=O)c1ccc(Cl)cc1)[C@@H](C)CN([C@@H](C)CO)S(=O)(=O)c1cccc(Cl)c1`: the growth inhibition call is “inactive”.

For `C[C@@H]1CCCCO[C@@H](CN(C)C(=O)CCC(F)(F)F)[C@H](C)CN([C@H](C)CO)C(=O)c2cc(NS(=O)(=O)c3ccccc3)ccc2O1`, the growth inhibition call is “inactive”.

With `C[C@@H]1CN([C@H](C)CO)C(=O)c2cc(NC(=O)Nc3ccccc3)ccc2O[C@@H](C)CCCCO[C@H]1CN(C)Cc1ccc(Cl)c(Cl)c1`, the growth inhibition call was “inactive”.

Turning to `Cc1ccc(-c2ccc3c(c2)O[C@@H](CN(C)C(=O)Nc2ccc(C(F)(F)F)cc2)[C@H](C)CN([C@@H](C)CO)S3(=O)=O)cc1`, the growth inhibition call is “inactive”.

For `O=C(CCCN1CCN(c2ccccn2)CC1)c1ccc(F)cc1`, the growth inhibition call is “inactive”.

For `COc1ccc(NC(=O)N(C)C[C@@H]2Oc3ccc(NC(=O)CCN4CCOCC4)cc3CC(=O)N([C@@H](C)CO)C[C@H]2C)cc1`, the growth inhibition call was “inactive”.

Turning to `C[C@@H]1CCCCO[C@@H](CN(C)CC2CC2)[C@@H](C)CN([C@H](C)CO)C(=O)c2cc(NC(=O)NC3CCCCC3)ccc2O1`, the growth inhibition call was “inactive”.

As to `Cc1ccn2c(=O)c(C(=O)O)cnc2c1`, the growth inhibition call is “inactive”.

Take `C=C1C[C@@H]2CC[C@@]34C[C@H]5O[C@H]6[C@@H](O3)[C@H]3O[C@H](CC[C@@H]3O[C@H]6[C@H]5O4)CC(=O)C[C@@H]3[C@@H](OC)[C@@H](C[C@H](O)CN)O[C@H]3C[C@H]3O[C@@H](CC[C@@H]1O2)C[C@@H](C)C3=C`: the growth inhibition call is “inactive”.

For `C[C@@H]1CN([C@H](C)CO)C(=O)c2cc(NS(=O)(=O)c3ccc(F)cc3)ccc2O[C@H]1CN(C)S(C)(=O)=O`, the growth inhibition call is “inactive”.

Turning to `Cc1ccc(S(=O)(=O)Nc2ccc3c(c2)C(=O)N([C@@H](C)CO)C[C@@H](C)[C@H](CN(C)Cc2ccccc2)OCCCC[C@@H](C)O3)cc1`, the growth inhibition call is “inactive”.

For the molecule `COc1ccc(S(=O)(=O)N(C)C[C@@H]2Oc3c(NS(C)(=O)=O)cccc3C(=O)N([C@@H](C)CO)C[C@H]2C)cc1`, the growth inhibition call was “inactive”.

In the case of `Cc1ccc(S(=O)(=O)Nc2ccc3c(c2)C(=O)N([C@H](C)CO)C[C@H](C)[C@H](CN(C)C(=O)Nc2cccc4ccccc24)OCCCC[C@H](C)O3)cc1`, the growth inhibition call was “inactive”.

Turning to `COC(=O)C=CC(C)=CC=CC(C)=CC=CC=C(C)C=CC=C(C)C=CC(=O)O`, the growth inhibition call was “inactive”.

For `C[C@H]1CCCCO[C@@H](CN(C)C(=O)Nc2ccccc2)[C@@H](C)CN([C@@H](C)CO)C(=O)c2cc(NC(=O)Nc3ccc4c(c3)OCO4)ccc2O1`, the growth inhibition call is “inactive”.

Consider `C[C@@H]1CN([C@@H](C)CO)S(=O)(=O)c2ccc(C#C[C@@H](C)O)cc2O[C@H]1CN(C)C(=O)c1ccncc1`, for which the growth inhibition call was “inactive”.

`C[C@@H]1CN([C@H](C)CO)C(=O)CCCn2nncc2CO[C@@H]1CN(C)C(=O)C1CC1`: the growth inhibition call was “inactive”.

For the molecule `COc1cc2c(cc1OC)CN(CCc1ccc(-n3nnc(-c4cc(OC)c(OC)cc4NC(=O)c4cc(=O)c5ccccc5o4)n3)cc1)CC2`, the growth inhibition call was “inactive”.

For `C[C@@H]1CCCCO[C@@H](CN(C)C(=O)Nc2cccc3ccccc23)[C@H](C)CN([C@H](C)CO)C(=O)c2cc(NC(=O)Nc3ccc4c(c3)OCO4)ccc2O1`, the growth inhibition call is “inactive”.

With `C[C@@H]1CN([C@H](C)CO)C(=O)c2cc(NC(=O)Nc3ccc(C(F)(F)F)cc3)ccc2O[C@@H](C)CCCCO[C@H]1CN(C)C`, the growth inhibition call was “inactive”.

`C[C@@H]1CN([C@@H](C)CO)C(=O)c2cc(NC(=O)Nc3ccc(C(F)(F)F)cc3)ccc2O[C@H]1CN(C)C(=O)Nc1ccc2c(c1)OCO2`: the growth inhibition call was “inactive”.

With `C[C@H](C(=O)O)[C@H]1SC(=O)NC1=O`, the growth inhibition call is “inactive”.

For the molecule `C[C@H](CO)N1C[C@H](C)[C@H](CN(C)C(=O)Nc2ccc3c(c2)OCO3)Oc2ccc(NS(=O)(=O)c3cn(C)cn3)cc2C1=O`, the growth inhibition call is “inactive”.

For `CCCNC(=O)C[C@H]1CC[C@H]2[C@@H](COc3ccc(NS(=O)(=O)c4ccccc4C)cc3C(=O)N2C)O1`, the growth inhibition call is “inactive”.

For `O=C(O)CCCN=C1NC(=O)CC(=O)N1`, the growth inhibition call was “inactive”.

With `Cc1noc(C)c1NC(=O)N(C)C[C@@H]1Oc2c(NC(=O)c3cnccn3)cccc2C(=O)N([C@@H](C)CO)C[C@H]1C`, the growth inhibition call is “inactive”.

With `COC1=C2C[C@@H](C)C[C@H](OC)[C@H](O)[C@@H](C)/C=C(\C)[C@H](OC(N)=O)[C@@H](OC)/C=C/C=C(\C)C(=O)NC(=CC1=O)C2=O`, the growth inhibition call was “inactive”.

Consider `Cl.O=C(c1ccc(OCCN2CCCCC2)cc1)c1c(-c2ccc(O)cc2)sc2cc(O)ccc12`, for which the growth inhibition call was “inactive”.

`COCC(=O)Nc1ccc2c(c1)C(=O)N(C)C[C@@H](OC)[C@@H](C)CN(Cc1ccccc1F)[C@H](C)CO2`: the growth inhibition call is “inactive”.

For `COc1ccc(S(=O)(=O)Nc2ccc3c(c2)C(=O)N([C@@H](C)CO)C[C@@H](C)[C@@H](CN(C)C(=O)Nc2c(C)noc2C)OCCCC[C@H](C)O3)cc1`, the growth inhibition call is “inactive”.

Consider `O=C(O)CNC(=O)c1[nH]nc2ccccc12`, for which the growth inhibition call was “inactive”.

Take `CNC[C@H]1Oc2c(NS(=O)(=O)c3cn(C)cn3)cccc2C(=O)N([C@@H](C)CO)C[C@@H]1C`: the growth inhibition call was “inactive”.

Consider `Cc1nsc(C(=O)NC[C@H]2CCCO2)n1`, for which the growth inhibition call is “inactive”.

On to `CNC[C@@H]1Oc2c(NS(=O)(=O)c3cn(C)cn3)cccc2C(=O)N([C@@H](C)CO)C[C@@H]1C`, for which the growth inhibition call is “inactive”.

For the molecule `C[C@H](CO)N1C[C@H](C)[C@H](CN(C)C(=O)C2CCCCC2)Oc2cc(C#CC(C)(C)O)ccc2S1(=O)=O`, the growth inhibition call was “inactive”.

Consider `CN(C)/C=C/C(=S)c1cccs1`, for which the growth inhibition call was “inactive”.

Turning to `CC1(C)C=Cc2c(c3c(c4c(=O)c(-c5ccc(O)c(O)c5)coc24)OC(C)(C)CC3)O1`, the growth inhibition call is “inactive”.

Take `C[C@@H]1CN([C@H](C)CO)C(=O)c2cccc(NS(=O)(=O)c3ccc(F)cc3)c2O[C@H]1CN(C)Cc1ccc(Oc2ccccc2)cc1`: the growth inhibition call was “inactive”.
